As a reminder, the Kd is the constant that tells how readily two partners part at equilibrium.

This is an account of results in patent publication US20230094463A1, “ANTIBODIES THAT DISRUPT THE INTERACTION OF GAL3 AND INSULIN RECEPTOR OR INTEGRINS AND METHODS OF USE THEREOF” (TrueBinding, Inc., priority 2019, published 2023).

“Also recorded” adds a separate entry of the source.

In assay [1] the target is T1, interaction of Gal3 and INSR (Homo sapiens, UniProt P17931).
T1 construct: 6-histidine tag (linker-spaced); purchased Acro Biosystems (Gal3); Sino Biological (INSR) GA3-H5129; 11086-H08H
The assay can be described thus: ELISA of blocking of Gal3-INSR association by Gal3-binding antibodies. The procedure:
Positively scoring wells were evaluated for the ability to block association of Gal3 and INSR. To identify Gal3-targeted antibodies with the ability to block the interaction of Gal3 and INSR, purified Gal3 and INSR proteins were incubated in the presence of Gal3-immunization hybridoma supernatants described above, or without antibody, and protein interaction was evaluated by ELISA. Human Galectin-3 protein (Acro Biosystems, GA3-H5129) was diluted in PBS (Corning, 21-030-CM) to a concentration of 3 μg/ml and added to the wells of a 96-well ELISA plate (Thermo Fisher, 44-2404-21). After incubating the plate at 4° C. overnight, the plate was washed three times with PBST (PBS with 0.05% Tween 20 [VWR, 0777]). The plate was then blocked for an hour with 2% BSA (EMD Millipore, 126609) in PBST at room temperature with gentle rocking. Thereafter, the 2% BSA in PBST was discarded and antibody or inhibitor (3-fold dilutions beginning at 20 μg/ml, 60 μg/ml, or 180 μM) in 2% BSA in PBST was added to the wells. Afterwards, 6 μg/ml of human Insulin Receptor (Sino Biological, 11086-H08H) in 2% BSA in PBST was added to the antibody or inhibitor in the wells in a 1:1 ratio. The plate was incubated for an hour at room temperature with gentle rocking. […] The reaction was stopped with 1M HCl (JT Baker, 5620-02) and read using a plate reader (Molecular Devices) at absorbance of 450 nm.
A general note: An ELISA detects its analyte on a solid surface through an enzyme-linked reagent.

For a further assay, the target named is Galectin-3 (Homo sapiens, UniProt P17931). In words: SPR (BiacoreT200) affinity of monoclonal Gal3 antibodies to Gal3. The settings on record: 25° C., 1:1 interaction model. Type of assay: binding. The procedure: To evaluate whether the ability to block Gal3 assembly with INSR was a function of antibody affinity to Gal3, the affinity of monoclonal Gal3 antibodies to Gal3 was evaluated by SPR. Kinetics experiments were performed on BiacoreT200 at 25° C. in high performance mode. Ligand proteins, purified antibodies were captured onto a CM5 chip coupled with anti-human Fc or anti-mouse Fc antibody, three antibodies at a time onto flow cell #2, 3, and 4, respectively, while flow cell #1 was used as reference. The analyte Galectin-3 in HBS-EP buffer was injected over all four flow cells at concentrations of 100, 50, 25, 12.5, 6.25, 3.125 and 0 nM at a flow rate of 30 μL/min. The complex was allowed to associate and dissociate for 240 and 300 seconds, respectively. The surfaces were regenerated with a 30 second injection of 10 mM Glycine pH 1.7 (flow rate 30 μL/min). The data were fit to a simple 1:1 interaction model using the global data analysis option available within BiacoreT200 Evaluation software V2.0.
In general terms: SPR reads the build-up and loss of mass on a sensor chip optically.

For assay [2], the target named is T2, interaction of GAL3 and ITGb1 (Homo sapiens, UniProt P17931).
T2 construct: Sino Biological (ITGb1, purchased) QCB200352; 10587-H08H1
In words: ELISA of blocking of the GAL3-ITGb1 interaction. Type of assay: binding. As to conditions: antibodies added at 20, 6.6, or 2.2 μg/ml. The procedure:
To identify GAL3-targeted antibodies with the ability to block the interaction of GAL3 and ITGb1, purified GAL3 and ITGb1 were incubated in the presence (or absence) of various GAL3-targeted or control antibodies, or without antibody, and protein interaction was evaluated by ELISA.
Human GAL3 (TrueBinding, QCB200352) was diluted in PBS (Corning, 21-030-CM) to a concentration of 4 μg/ml and added to the wells of a 96-well ELISA plate (Thermo Fisher, 44-2404-21). After incubating the plate at 4° C. overnight, the plate was washed three times with PBST (PBS with 0.05% Tween 20 [VWR, 0777]) and then blocked for an hour with 2% BSA (EMD Millipore, 126609) in PBST at room temperature with gentle rocking. Recombinant human ITGb1 (Sino Biological, 10587-H08H1) was biotinylated with EZ Link Sulfo-NHS-LC-Biotin (ThermoFisher Scientific, A39257) and desalted using a Zeba Spin Desalting Column (ThermoFisher Scientific, 89882), following the manufacturer's instructions. […] The reaction was stopped with 1M HCl (JT Baker, 5620-02) and read using a plate reader (Molecular Devices) at absorbance of 450 nm. Percent blockade of the GAL3-ITGb1 interaction was calculated as the fraction of signal obtained in the absence of antibody with the background signal subtracted.

T2 sequence (P17931 2-250 limits assumed): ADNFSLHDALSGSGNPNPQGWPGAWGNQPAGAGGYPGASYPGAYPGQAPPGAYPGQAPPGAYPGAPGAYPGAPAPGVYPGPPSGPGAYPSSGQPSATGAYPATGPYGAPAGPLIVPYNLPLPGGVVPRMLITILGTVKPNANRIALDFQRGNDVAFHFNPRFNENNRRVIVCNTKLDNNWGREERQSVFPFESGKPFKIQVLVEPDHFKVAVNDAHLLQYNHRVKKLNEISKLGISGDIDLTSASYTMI
Chain of Galectin-3 (P17931 whole entry): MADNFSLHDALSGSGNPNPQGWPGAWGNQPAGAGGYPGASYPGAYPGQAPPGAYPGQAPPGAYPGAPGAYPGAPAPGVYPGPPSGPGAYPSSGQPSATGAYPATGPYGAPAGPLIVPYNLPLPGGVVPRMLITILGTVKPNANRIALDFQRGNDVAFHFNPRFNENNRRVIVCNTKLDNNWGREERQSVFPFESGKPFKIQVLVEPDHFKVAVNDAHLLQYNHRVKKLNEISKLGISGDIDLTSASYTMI
T1 sequence (P17931 2-250 limits assumed): as the sequence (P17931 2-250 limits assumed) above

B1: 9H2.2H1: anti-Gal3 monoclonal antibody (antibody)
heavy: QVQLQQPGAELVGPGSSVKLSCKASGYTFTNYWIHWVKQRPLQGLEWIGNIDPSDSETHYNQKFKDKATLTVDKSSSTAYMQLSSLTSEDSAVYYCARHGYYDYWGQGTTLTVSSASTKGPSVFPLAPCSRSTSESTAALGCLVKDYFPEPVTVSWNSGALTSGVHTFPAVLQSSGLYSLSSVVTVPSSSLGTKTYTCNVDHKPSNTKVDKRV[human IgG4 Fc with S228P (EU numbers) not spelt out]
light: DIVMTQSHKFMSTSVGDRVSITCKASQDVSTAVAWYQQKPGQSPKLLIYWASTRHTGVPDRFTGSGSGTDYTLTISSVQAEDLALYYCQQHYTTPLTFGAGTKLELKRTVAAPSVFIFPPSDEQLKSGTASVVCLLNNFYPREAKVQWKVDNALQSGNSQESVTEQDSKDSTYSLSSTLTLSKADYEKHKVYACEVTHQGLSSPVTKSFNRGEC
On to B1, for which the “Gal3-INSR blocking activity (in words)” value in assay [1] was “poorly block”. Besides, in the assay with Galectin-3, the dissociation constant Kd stood at 2.53 nM.

B2: 6B3.2D3: anti-Gal3 antibody (antibody)
heavy: QVQLKQSGPGLVQPSQSLSITCTVSGFSLTSYGVHWVRQPPGKGLEWLGVIWSGGSTDYNAAFISRLSISKDNSKSQVFFKMNSLQADDTAIYYCAKGPYDYDLGWFAYWGQGTLVTVSAASTKGPSVFPLAPCSRSTSESTAALGCLVKDYFPEPVTVSWNSGALTSGVHTFPAVLQSSGLYSLSSVVTVPSSSLGTKTYTCNVDHKPSNTKVDKRV[human IgG4 Fc with S228P (EU numbers) not spelt out]
light: SIVMTQTPKFLLVSAGDRVTITCKASQSVSNDVAWYQQKPGQSPKLLIYYASNRYTGVPDRFTGSGYGTDFTFTISTVQAEDLAVYFCQQDYTSPYTFGGGTKLEIKRTVAAPSVFIFPPSDEQLKSGTASVVCLLNNFYPREAKVQWKVDNALQSGNSQESVTEQDSKDSTYSLSSTLTLSKADYEKHKVYACEVTHQGLSSPVTKSFNRGEC
Turning to B2, in assay [2], the “blocking of the interaction between GAL3 and ITGb1” value is reported as “no blocking ability; also recorded: do not disrupt”.
